Experimental findings from the supplement of paper PMC11876631 are described below.

B1: accA I116A (protein)
chain: MSLNFLDFEQPIAELEAKIDSLTAVSRQDEKLDINIDEEVHRLREKSVELTRKIFADLGAWQIAQLARHPQRPYTLDYVRLAFDEFDELAGDRAYADDKAIVGGIARLDGRPVMIAGHQKGRETKEKIRRNFGMPAPEGYRKALRLMQMAERFKMPIITFIDTPGAYPGVGAEERGQSEAIARNLREMSRLGVPVVCTVIGEGGSGGALAIGVGDKVNMLQYSTYSVISPEGCASILWKSADKAPLAAEAMGIIAPRLKELKLIDSIIPEPLGGAHRNPEAMAASLKAQLLADLADLDVLSTEDLKNRRYQRLMSYGYA
B2: cdsA L20P (protein)
chain: MLKYRLISAFVLIPVVIAAPFLLPPVGFAIVTLVVCMLAAWEWGQLSGFTTRSQRVWLAVLCGLLLALMLFLLPEYHRNIHQPLVEISLWASLGWWIVALLLVLFYPGSAAIWRNSKTLRLIFGVLTIVPFFWGMLALRAWHYDENHYSGAIWLLYVMILVWGADSGAYMFGKLFGKHKLAPKVSPGKTWQGFIGGLATAAVISWGYGMWANLDVAPVTLLICSIVAALASVLGDLTESMFKREAGIKDSGHLIPGHGGILDRIDSLTAAVPVFACLLLLVFRTL
B3: cdsA L221W (protein)
chain: MLKYRLISAFVLIPVVIAALFLLPPVGFAIVTLVVCMLAAWEWGQLSGFTTRSQRVWLAVLCGLLLALMLFLLPEYHRNIHQPLVEISLWASLGWWIVALLLVLFYPGSAAIWRNSKTLRLIFGVLTIVPFFWGMLALRAWHYDENHYSGAIWLLYVMILVWGADSGAYMFGKLFGKHKLAPKVSPGKTWQGFIGGLATAAVISWGYGMWANLDVAPVTLWICSIVAALASVLGDLTESMFKREAGIKDSGHLIPGHGGILDRIDSLTAAVPVFACLLLLVFRTL
B4: cdsA V125W (protein)
chain: MLKYRLISAFVLIPVVIAALFLLPPVGFAIVTLVVCMLAAWEWGQLSGFTTRSQRVWLAVLCGLLLALMLFLLPEYHRNIHQPLVEISLWASLGWWIVALLLVLFYPGSAAIWRNSKTLRLIFGWLTIVPFFWGMLALRAWHYDENHYSGAIWLLYVMILVWGADSGAYMFGKLFGKHKLAPKVSPGKTWQGFIGGLATAAVISWGYGMWANLDVAPVTLLICSIVAALASVLGDLTESMFKREAGIKDSGHLIPGHGGILDRIDSLTAAVPVFACLLLLVFRTL
B5: cdsA L126A (protein)
chain: MLKYRLISAFVLIPVVIAALFLLPPVGFAIVTLVVCMLAAWEWGQLSGFTTRSQRVWLAVLCGLLLALMLFLLPEYHRNIHQPLVEISLWASLGWWIVALLLVLFYPGSAAIWRNSKTLRLIFGVATIVPFFWGMLALRAWHYDENHYSGAIWLLYVMILVWGADSGAYMFGKLFGKHKLAPKVSPGKTWQGFIGGLATAAVISWGYGMWANLDVAPVTLLICSIVAALASVLGDLTESMFKREAGIKDSGHLIPGHGGILDRIDSLTAAVPVFACLLLLVFRTL
B6: cdsA I122Q (protein)
chain: MLKYRLISAFVLIPVVIAALFLLPPVGFAIVTLVVCMLAAWEWGQLSGFTTRSQRVWLAVLCGLLLALMLFLLPEYHRNIHQPLVEISLWASLGWWIVALLLVLFYPGSAAIWRNSKTLRLQFGVLTIVPFFWGMLALRAWHYDENHYSGAIWLLYVMILVWGADSGAYMFGKLFGKHKLAPKVSPGKTWQGFIGGLATAAVISWGYGMWANLDVAPVTLLICSIVAALASVLGDLTESMFKREAGIKDSGHLIPGHGGILDRIDSLTAAVPVFACLLLLVFRTL
B7: cdsA L126W (protein)
chain: MLKYRLISAFVLIPVVIAALFLLPPVGFAIVTLVVCMLAAWEWGQLSGFTTRSQRVWLAVLCGLLLALMLFLLPEYHRNIHQPLVEISLWASLGWWIVALLLVLFYPGSAAIWRNSKTLRLIFGVWTIVPFFWGMLALRAWHYDENHYSGAIWLLYVMILVWGADSGAYMFGKLFGKHKLAPKVSPGKTWQGFIGGLATAAVISWGYGMWANLDVAPVTLLICSIVAALASVLGDLTESMFKREAGIKDSGHLIPGHGGILDRIDSLTAAVPVFACLLLLVFRTL
B8: cdsA L221Q (protein)
chain: MLKYRLISAFVLIPVVIAALFLLPPVGFAIVTLVVCMLAAWEWGQLSGFTTRSQRVWLAVLCGLLLALMLFLLPEYHRNIHQPLVEISLWASLGWWIVALLLVLFYPGSAAIWRNSKTLRLIFGVLTIVPFFWGMLALRAWHYDENHYSGAIWLLYVMILVWGADSGAYMFGKLFGKHKLAPKVSPGKTWQGFIGGLATAAVISWGYGMWANLDVAPVTLQICSIVAALASVLGDLTESMFKREAGIKDSGHLIPGHGGILDRIDSLTAAVPVFACLLLLVFRTL
B9: cdsA I122P (protein)
chain: MLKYRLISAFVLIPVVIAALFLLPPVGFAIVTLVVCMLAAWEWGQLSGFTTRSQRVWLAVLCGLLLALMLFLLPEYHRNIHQPLVEISLWASLGWWIVALLLVLFYPGSAAIWRNSKTLRLPFGVLTIVPFFWGMLALRAWHYDENHYSGAIWLLYVMILVWGADSGAYMFGKLFGKHKLAPKVSPGKTWQGFIGGLATAAVISWGYGMWANLDVAPVTLLICSIVAALASVLGDLTESMFKREAGIKDSGHLIPGHGGILDRIDSLTAAVPVFACLLLLVFRTL
B10: cdsA I203W (protein)
chain: MLKYRLISAFVLIPVVIAALFLLPPVGFAIVTLVVCMLAAWEWGQLSGFTTRSQRVWLAVLCGLLLALMLFLLPEYHRNIHQPLVEISLWASLGWWIVALLLVLFYPGSAAIWRNSKTLRLIFGVLTIVPFFWGMLALRAWHYDENHYSGAIWLLYVMILVWGADSGAYMFGKLFGKHKLAPKVSPGKTWQGFIGGLATAAVWSWGYGMWANLDVAPVTLLICSIVAALASVLGDLTESMFKREAGIKDSGHLIPGHGGILDRIDSLTAAVPVFACLLLLVFRTL
B11: cdsA L221A (protein)
chain: MLKYRLISAFVLIPVVIAALFLLPPVGFAIVTLVVCMLAAWEWGQLSGFTTRSQRVWLAVLCGLLLALMLFLLPEYHRNIHQPLVEISLWASLGWWIVALLLVLFYPGSAAIWRNSKTLRLIFGVLTIVPFFWGMLALRAWHYDENHYSGAIWLLYVMILVWGADSGAYMFGKLFGKHKLAPKVSPGKTWQGFIGGLATAAVISWGYGMWANLDVAPVTLAICSIVAALASVLGDLTESMFKREAGIKDSGHLIPGHGGILDRIDSLTAAVPVFACLLLLVFRTL
B12: cdsA I203Q (protein)
chain: MLKYRLISAFVLIPVVIAALFLLPPVGFAIVTLVVCMLAAWEWGQLSGFTTRSQRVWLAVLCGLLLALMLFLLPEYHRNIHQPLVEISLWASLGWWIVALLLVLFYPGSAAIWRNSKTLRLIFGVLTIVPFFWGMLALRAWHYDENHYSGAIWLLYVMILVWGADSGAYMFGKLFGKHKLAPKVSPGKTWQGFIGGLATAAVQSWGYGMWANLDVAPVTLLICSIVAALASVLGDLTESMFKREAGIKDSGHLIPGHGGILDRIDSLTAAVPVFACLLLLVFRTL
B13: cdsA I122W (protein)
chain: MLKYRLISAFVLIPVVIAALFLLPPVGFAIVTLVVCMLAAWEWGQLSGFTTRSQRVWLAVLCGLLLALMLFLLPEYHRNIHQPLVEISLWASLGWWIVALLLVLFYPGSAAIWRNSKTLRLWFGVLTIVPFFWGMLALRAWHYDENHYSGAIWLLYVMILVWGADSGAYMFGKLFGKHKLAPKVSPGKTWQGFIGGLATAAVISWGYGMWANLDVAPVTLLICSIVAALASVLGDLTESMFKREAGIKDSGHLIPGHGGILDRIDSLTAAVPVFACLLLLVFRTL
B14: cdsA I122D (protein)
chain: MLKYRLISAFVLIPVVIAALFLLPPVGFAIVTLVVCMLAAWEWGQLSGFTTRSQRVWLAVLCGLLLALMLFLLPEYHRNIHQPLVEISLWASLGWWIVALLLVLFYPGSAAIWRNSKTLRLDFGVLTIVPFFWGMLALRAWHYDENHYSGAIWLLYVMILVWGADSGAYMFGKLFGKHKLAPKVSPGKTWQGFIGGLATAAVISWGYGMWANLDVAPVTLLICSIVAALASVLGDLTESMFKREAGIKDSGHLIPGHGGILDRIDSLTAAVPVFACLLLLVFRTL
B15: cdsA I122A (protein)
chain: MLKYRLISAFVLIPVVIAALFLLPPVGFAIVTLVVCMLAAWEWGQLSGFTTRSQRVWLAVLCGLLLALMLFLLPEYHRNIHQPLVEISLWASLGWWIVALLLVLFYPGSAAIWRNSKTLRLAFGVLTIVPFFWGMLALRAWHYDENHYSGAIWLLYVMILVWGADSGAYMFGKLFGKHKLAPKVSPGKTWQGFIGGLATAAVISWGYGMWANLDVAPVTLLICSIVAALASVLGDLTESMFKREAGIKDSGHLIPGHGGILDRIDSLTAAVPVFACLLLLVFRTL

± gives the standard deviation of the averaged measurements. Laboratory Escherichia coli strains with one amino-acid change in an essential protein, pooled on minimal glucose agar with carbenicillin or gentamicin at twice the control MIC (plus kanamycin and chloramphenicol for the plasmids), 48 h. Fold change of barcode share against drug-free plates; higher = less susceptible. Active = above 20 in both replicates (the paper's putatively resistant). '<' = one read or none on drug, '>' = one read or none on a drug-free plate. Shares are relative, so most strains fall below 1 when a few take over. Listed are strains with at least 15 reads on both drug-free plates, and hits; most hits rest on fewer reference reads. Replicate rank correlation about 0.5. Edits are read from barcodes.

The first data set concerns the target Escherichia coli (laboratory strain). The experiment in a line: barcode share on antibiotic plates over drug-free plates; higher = less susceptible. The note with it: antibiotic: carbenicillin; 2× MIC (3.1 µg/mL). The method, then: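 A pool of E. coli strains, each edited to carry one amino-acid change in an essential protein, was grown for 48 h on minimal glucose agar with or without antibiotic; strain barcodes were sequenced; mean of two replicates.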
As for B1, the “fold change of barcode share” value stood at 0.309 ± 0.16.
Regarding B2, the “fold change of barcode share” value was determined as 0.266 ± 0.052.
For B3, the “fold change of barcode share” value was 0.336 ± 0.17.
In the case of B4, the “fold change of barcode share” value came to 0.334 ± 0.28.
Still for that read-out and setting: the result for B5 reads 0.201 ± 0.0084; that for B6, 0.264 ± 0.15.
As to B7, the “fold change of barcode share” value amounted to 1.37 ± 0.92.
On to B8, for which the “fold change of barcode share” value worked out at 0.235 ± 0.026.
Consider B9, for which the “fold change of barcode share” value came out at 0.366 ± 0.14.
Regarding B10, the “fold change of barcode share” value was found to be 0.396 ± 0.0099.
With B11, the “fold change of barcode share” value was found to be 0.45 ± 0.25.
B12: the “fold change of barcode share” value stood at 0.357 ± 0.13.
B13: the “fold change of barcode share” value was determined as 0.371 ± 0.13.
Regarding B14, the “fold change of barcode share” value was 0.218 ± 0.22.
Regarding B15, the “fold change of barcode share” value amounted to 0.218 ± 0.036.

Still in this data set, the particulars now being: antibiotic: gentamicin; 2× MIC (MIC 0.45 µg/mL).
Take B1: the “fold change of barcode share” value is below 0.0115.
B2: the “fold change of barcode share” value came to 0.251 ± 0.35.
Turning to B3, the “fold change of barcode share” value is 0.00875 ± 0.0056.
Same read-out and setting: the result for B4 reads below 0.0219; that for B5, below 0.0206.
The same measure, in the same setting: as for B6, the figure is below 0.00887.
Same read-out and setting: as for B7, the figure is below 0.0141; as for B8, below 0.00494; as for B9, 0.0152 ± 0.0086.
Turning to B10, the “fold change of barcode share” value is 0.0045 ± 0.0014.
As for B11, the “fold change of barcode share” value was below 0.00464.
Regarding B12, the “fold change of barcode share” value is below 0.002.
Turning to B13, the “fold change of barcode share” value is 0.0151 ± 0.0067.
Same read-out and setting: as for B14, the figure is below 0.0171.
Same read-out and setting: the result for B15 reads below 0.00784.
